In PubChem BioAssay (NCATS):
This list was built around the results that the source calls inconclusive (neither active nor inactive); the mix of calls is not that of the screen. No potency is given beside an inconclusive call; the fits are too rough. For some of these results: “Side channel” marks fits to a control or component signal instead of the main read-out. Activity calls are given as the source filed them. Unless noted, calls follow the shape of the dose curve; as a rule, active = well fitted cell-killing curve with a large enough effect; inconclusive = small, poorly fitted or top-dose-only effect; inactive = flat fitted curve, though single readings scatter.

biological target: Tyrosine-protein phosphatase non-receptor type substrate 1 (Homo sapiens) + Leukocyte surface antigen CD47 (Homo sapiens) (UniProt P78324+Q08722); assay: CD47-SIRPalpha protein protein interaction - HTRF assay qHTS validation (AID 1347058; active = well fitted curve in the direction sought with a large enough effect in the signal ratio, not every such curve was filed as active; inconclusive = small, poorly fitted or top-dose-only effect, or effect the other way, or a change in a side signal; inactive = no such curve, though single readings can be large or run the other way; the % refers to the signal ratio); details: TR-FRET HTRF CD47-His / biotin-SIRPalpha binding, ratio 665/615; series mostly up to 38.3 µM
Method in brief: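 TR-FRET read (Ch1/Ch2 ratio) of soluble extracellular CD47 and Avi-biotinylated SIRPalpha domains in PBS pH 7.4 with 0.05% IGEPAL; 7-point compound titration. Sequential 30 min room-temperature steps; non-biotinylated SIRPalpha as control inhibitor.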
Potency is read from the fitted curve at half-maximal effect; tags tell the direction and shape of the fitted curve.

Sequence of UniProt P78324 (P78324 whole entry, looked up, the tested form may be a part): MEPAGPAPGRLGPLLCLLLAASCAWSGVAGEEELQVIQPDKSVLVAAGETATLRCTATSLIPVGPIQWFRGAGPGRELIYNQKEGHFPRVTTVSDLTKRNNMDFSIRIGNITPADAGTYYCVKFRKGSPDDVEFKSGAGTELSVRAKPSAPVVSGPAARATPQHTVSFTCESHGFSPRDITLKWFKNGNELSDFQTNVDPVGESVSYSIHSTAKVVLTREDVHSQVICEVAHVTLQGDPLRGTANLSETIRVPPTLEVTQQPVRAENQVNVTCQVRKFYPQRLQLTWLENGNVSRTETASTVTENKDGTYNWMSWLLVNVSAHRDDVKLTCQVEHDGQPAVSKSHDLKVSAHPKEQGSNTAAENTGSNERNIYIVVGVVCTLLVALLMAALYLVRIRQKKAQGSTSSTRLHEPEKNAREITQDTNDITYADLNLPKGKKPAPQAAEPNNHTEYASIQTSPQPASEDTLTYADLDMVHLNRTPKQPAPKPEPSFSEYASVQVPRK
Sequence of UniProt P78324 (Q08722 whole entry, looked up, the tested form may be a part): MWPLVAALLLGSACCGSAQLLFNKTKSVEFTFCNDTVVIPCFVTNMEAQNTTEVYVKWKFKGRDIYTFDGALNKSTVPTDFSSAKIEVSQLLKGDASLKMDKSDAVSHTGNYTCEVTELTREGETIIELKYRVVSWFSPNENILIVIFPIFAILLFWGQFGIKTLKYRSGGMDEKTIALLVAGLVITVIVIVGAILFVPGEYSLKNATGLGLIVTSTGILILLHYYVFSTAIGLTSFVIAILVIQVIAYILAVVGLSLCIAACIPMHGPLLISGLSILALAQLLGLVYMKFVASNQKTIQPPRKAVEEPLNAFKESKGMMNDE

Row | SMILES | Potency
1 | COc1cc2c(cc1OC)C1CC(=O)C(CC(C)C)CN1CC2 (configuration not stated) | inactive
2 | CC1=C(C(=O)O)N2C(=O)[C@@H](NC(=O)C(N)c3ccccc3)[C@H]2SC1 (some centres not stated) | inconclusive [side channel, falling, single point]
3 | COc1ccc(Cc2nccc3cc(OC)c(OC)cc23)cc1OC | inactive

system: not listed separately; assay: qHTS of pediatric cancer cell lines to identify multiple opportunities for drug repurposing: Primary screen for TC32 cells (AID 1347089); details: TC32 Ewing sarcoma viability, CellTiter-Glo luminescence, 48 h; series mostly up to 45.8 µM; also: nearly all actives have a fitted effect of over 60% in size
Method in brief: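 Luminescent CellTiter-Glo read-out of metabolically active TC32 cells after 48 h compound exposure. Primary: MIPE 11-point, 0.78 nM–46 µM; NPC 8-point, 0.59 nM–46 µM. Confirmatory: 11-point dilutions.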

Row | SMILES | Potency
4 | CN(C)CCCN1c2ccccc2CCc2ccc(Cl)cc21 | inconclusive [cytotoxic, partial curve, poor fit]
5 | Nc1nc(=S)c2[nH]cnc2[nH]1 | inconclusive [cytotoxic, single point]
6 | COc1ccc2cc1Oc1ccc(cc1)C[C@H]1c3cc(c(OC)cc3CCN1C)Oc1c(OC)c(OC)cc3c1[C@H](C2)N(C)CC3 | inconclusive [cytotoxic, partial curve, poor fit]
7 | CC1=C(C(=O)O)N2C(=O)[C@@H](NC(=O)C(N)c3ccccc3)[C@H]2SC1 (some centres not stated) | inconclusive [rising, full curve, poor fit]
